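Growth conditions: 96-well plates. Treatment: test compound, 48 hours, 5 concentrations. Analysis: linear interpolation between bracketing concentrations; unreached endpoints set to highest concentration. GI50: concentration for 50% inhibition of growth. TGI marks complete inhibition of growth.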
What follows are compounds tested on NCI-H322M lung (assay: DTP human tumour cell line panel, 48 h).
With `C/C(CCn1[nH]c(=O)ccc1=O)=N\OCCCc1ccccc1` the TGI was greater than 100 µM.
`CCCOC(=O)NC(C)C(=O)NC(CCC(=O)NC(CCCC(N)C(=O)O)C(=O)NC(C)C(=O)O)C(=O)O` (configuration not stated) was tested, and the TGI was 43.7 µM.
In the case of `CCOC(=O)C(C)c1nc2c(Cl)c3ncccc3cc2[nH]c1=O` (configuration not stated), the TGI is reported as greater than 100 µM.
With `c1ccc(-c2cnc(-c3ccc(-c4ncc(-c5ccccc5)o4)cc3)o2)cc1` the TGI was greater than 100 µM.
Work on `COC(=O)c1cc(C)ccc1CC(Cc1ccc(C)cc1)C(=O)OC` (configuration not stated) yielded a TGI greater than 100 µM.
`O=c1c2ccccc2nc(-c2ccccc2)n1NC(=S)Nc1ccccc1` showed a TGI greater than 100 µM.
For `CC(O)CC(O)(C(F)(F)F)C(F)(F)F` (configuration not stated), the TGI was greater than 10 µM.
`O=C1c2cccc(NCCNCCO)c2C(=O)c2cccc(NCCNCCO)c21` gave a TGI of 2.78 µM.
For `OCCNCCOc1ccc(/C(=C(/Cl)c2ccccc2)c2ccccc2)cc1`, the TGI was 24.9 µM.
Compound `CC(=O)OC1C2CCC1C1C2C2(Cl)C(Cl)=C(Cl)C1(Cl)C2(Cl)Cl` (configuration not stated) has a TGI of 42.6 µM.
Work on `COC(=O)C1(Cc2ccc3c(c2)CCC3)Cc2cc3c(cc2C1)CCC3` yielded a TGI greater than 100 µM.
For `COC1=C(Br)C(=O)c2nc(C)ccc2C1=O`, the TGI was 54 µM.
In the case of `CCCCCCCCCCCCOC1C(C(CC(=O)NCCN2CCCC2)NS(=O)(=O)c2cc(Cl)cc(Cl)c2)OC2OC(C)(C)OC21` (configuration not stated), the GI50 is reported as 1.52 µM and the TGI is reported as 3.01 µM.
`CC/C(Cl)=N\OC(=O)Nc1ccc(F)c([N+](=O)[O-])c1` was tested, and the TGI was greater than 62.4 µM.
With `CCOC(=O)C1CN(C2CC2)CCC1=O` (configuration not stated) the TGI was greater than 100 µM.
With `CC1=C[C@@H](C)C[C@]2(C)CC[C@H](O2)[C@]23CC[C@](C(=O)O)(C[C@H](O2)[C@@H]2O[C@@](C)(CC2=O)[C@@H](O)[C@H]2CC[C@@]4(CCC[C@@H](O4)[C@H](C)C(=O)O[C@H]4C[C@H]([C@]5(O)OCC[C@H](C)[C@@H]5O)O[C@H]4C=C1)O2)O3` the TGI was greater than 10 µM.
With `O=C(O)CSc1n[nH]c(Cc2ccccc2)n1` the TGI was greater than 100 µM.
Compound `COc1ccc2c(c1)CCN=C2c1ccccc1CCCCl` has a TGI greater than 100 µM.
For `CC(C(=O)n1c2ccccc2c2ccccc21)N(c1ccccc1)c1ccccc1` (configuration not stated), the TGI was 31.5 µM.
In the case of `COc1ccc(N=Nc2c3c(c(O)c4ccccc24)CCC(C)(C)O3)cc1`, the TGI is reported as 93.7 µM.
In the case of `CCCCc1c2c(nc3c1CCC/C3=C\c1ccccc1)/C(=C/c1ccccc1)CCC2`, the TGI is reported as greater than 100 µM.
Compound `Clc1ccc(Cl)c(SCCCN2CCNCC2)c1` has a TGI of 35.5 µM.
For `Cn1cc(-c2ccc(-c3cncc(Cl)c3N3CCC4(CCNC4=O)CC3)cc2)cn1`, the GI50 was greater than 100 µM and the TGI was greater than 100 µM.
In the case of `Cc1cc2nc(-c3cc(C(C)(C)C)c(O)c(C(C)(C)C)c3)[nH]c2cc1C`, the TGI is reported as greater than 100 µM.
`O=C(NCc1ccc(S(=O)(=O)c2cc(F)cc(F)c2)cc1)c1ccc2nccn2c1` was tested, and the GI50 was greater than 55.3 µM and the TGI was greater than 100 µM.
In the case of `O=C(N/N=C/c1ccc([N+](=O)[O-])o1)c1ccc(O)cc1`, the GI50 is reported as 8.62 µM and the TGI is reported as greater than 100 µM.
Work on `CCN(CC)CCNC(=O)c1ccc(C)c(OCc2ccccc2)c1[N+](=O)[O-]` yielded a TGI greater than 88.8 µM.
In the case of `CCCCCc1ccc(S(=O)(=O)Nc2cc(-c3csc(NC(C)=O)n3)ccc2N2CCN(C)CC2)cc1`, the GI50 is reported as 5.48 µM and the TGI is reported as 10.1 µM.
`CC1(C)[C@@H](Cn2cnc3c(Cl)nc(N)nc32)CC[C@@]1(C)CO` was tested, and the TGI was greater than 100 µM.
For `N#CC(=N)c1ncn(-c2ccccc2N)c1N`, the TGI was greater than 100 µM.
`Cc1cn2c(C)csc2c1P(=O)(OC(C)C)OC(C)C` gave a TGI greater than 100 µM.
`Cc1cccc(C)c1NC(=O)C(=O)CC(=O)c1cccc([N+](=O)[O-])c1` was tested, and the TGI was greater than 100 µM.
Work on `C/C(=N\NC(=S)N1CC2CCC(CC2)C1)c1ccccn1` yielded a GI50 of 0.0206 µM and a TGI of 1.38 µM.
`CC1=C(C(=O)Nc2ccccc2)C(c2ccc(C3C(C(=O)Nc4ccccc4)=C(C)NC(C)=C3C(=O)Nc3ccccc3)cc2)C(C(=O)Nc2ccccc2)=C(C)N1` gave a TGI of 20.2 µM.
With `Nc1nc(N)nc(CCCc2nc(N)nc(N)n2)n1` the TGI was greater than 100 µM.
Work on `Cc1cc2c(nn1)-c1ccccc1C2=O` yielded a TGI greater than 10 µM.
Compound `Nc1nc(N)c2cc(CNc3ccc(C(=O)NC(CC(=O)O)C(=O)O)c(Cl)c3)ccc2n1` (configuration not stated) has a GI50 of 0.07 µM and a TGI greater than 500 µM.
`O=C(OCC(OC(=O)c1ccccc1)C(OC(=O)c1ccccc1)C(OC(=O)c1ccccc1)c1cnn(-c2ccccc2)n1)c1ccccc1` (configuration not stated) was tested, and the TGI was greater than 100 µM.
Work on `CN1CCN(c2ccc(Nc3ncc4cc(C#N)c(=O)n(C5CCCC5)c4n3)cc2)CC1` yielded a GI50 of 1.57 µM and a TGI greater than 100 µM.
`CCCCCCCCCCN1CCC(N2CCCCC2)CC1` was tested, and the GI50 was 16.4 µM and the TGI was 31 µM.
With `N#Cc1c(C#N)c(-c2ccccc2)n(-c2ccccc2)c1N` the TGI was greater than 100 µM.
For `S=C1CC(c2ccccc2)Sc2ccc(Cl)cc2N1` (configuration not stated), the TGI was greater than 100 µM.
Compound `C=CCn1c2c(sc1=S)C(S)N=CN2` (configuration not stated) has a TGI greater than 100 µM.
`COc1cc(CC(C)N)ccc1O` (configuration not stated) showed a TGI greater than 100 µM.
`CCCCC/C(C=O)=C\c1ccccc1` showed a TGI greater than 100 µM.
In the case of `OCC(O)CNc1ccnc2cc(Cl)ccc12` (configuration not stated), the TGI is reported as greater than 100 µM.
Work on `CN(C)CCSc1nccc(-c2cc3ccccc3s2)n1` yielded a TGI greater than 100 µM.
Compound `Cc1ccc(Nc2nnc(-c3ccc4c(c3)OCO4)o2)c(C)c1` has a TGI greater than 100 µM.
`N.N.NCCCCCCCCCN.O=C([O-])CC(=O)[O-].O=C([O-])CC(=O)[O-].[Pt+4].[Pt+4]` was tested, and the GI50 was greater than 100 µM and the TGI was greater than 100 µM.
With `NC(=O)c1ncn2c1NC(=O)CC2` the TGI was greater than 100 µM.
`O=C(N/N=C/c1c(Cl)cccc1Cl)c1ccc(C(F)(F)F)nc1Nc1cccc(C(F)(F)F)c1` showed a GI50 of 0.959 µM and a TGI greater than 100 µM.

From PubChem BioAssay (NCI)
